The campaign covered roughly 410,000 compounds. About 530 (0.13%) were called active. The inconclusive results got no clear call from the source; some entries with a clear call stand among them for comparison. Calls come from the whole dose curve; as a rule, active = well fitted inhibition curve with a large enough effect; inconclusive = small, poorly fitted or top-dose-only effect, or another doubt; inactive = no such curve, though single readings can be large or run the other way. A potency beside an inconclusive call is a rough fit, not a confirmed value.
Assay: qHTS of GLP-1 Receptor Inverse Agonists: Cytotox Screen
Details: HEK293 cAMP-luciferase reporter cells, luminescence, 24 h; activity change, negative = inhibition: at 38.3 µM (top of the series) unless noted
How it was run: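 MLSMR compounds, 24 hr on cells at 37 deg C/5% CO2; luminescence after luciferase reagent (12 min RT). Inhibition counted as the undesired cytotoxic outcome.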
For `CC(=O)N1c2ccccc2C2CCCC[C@H]21` (some centres not stated), the Potency was inconclusive: 28.2 µM [inhibitor, single point].
In the case of `CCNC(=S)Nc1ccc2c(c1)oc1ccccc12`, the “activity change, negative = inhibition” value is reported as inactive: -4.07%.
In the case of `CC(=O)c1c(C)[nH]c(C(=O)OCC(=O)Nc2ccc([N+](=O)[O-])cc2Cl)c1C`, the Potency is reported as inconclusive: 10 µM [inhibitor, single point].
For `O=C(COC(=O)c1cc([N+](=O)[O-])ccc1N1CCOCC1)Nc1ccc(Cl)cn1`, the Potency was inconclusive: 11.2 µM [inhibitor, single point].
In the case of `CCN1CCN(Cc2ccc(NC(=O)c3ccc(C)c(NC(=O)N4CCNC4=O)c3)cc2C(F)(F)F)CC1`, the Potency is reported as inconclusive: 28.2 µM [inhibitor, single point].
With `CC(C)(C)c1ccc(NC(=O)COc2ccc(-n3ccnc3)cc2)cc1` the Potency was inconclusive: 14.1 µM [inhibitor, partial curve, poor fit].
For `CC1=C(C(=O)Nc2cccc(C(F)(F)F)c2)C2(CCCCCC2)OC1=O`, the “activity change, negative = inhibition” value was inactive: -11.8%.
With `Cc1cc(C)cc(C(O)c2ncc(-c3ccc(C(F)(F)F)cc3)[nH]2)c1` (configuration not stated) the Potency was inconclusive: 3.98 µM [inhibitor, partial curve, poor fit].
With `COc1ccc2cc(CN(CC3CCCO3)C(=O)Nc3ccccc3OC)c(=O)[nH]c2c1` (configuration not stated) the Potency was inconclusive: 4.47 µM [inhibitor, full curve, poor fit].
For `Cc1ccc(NC(=O)CSC2=C(C#N)C(c3ccco3)C3=C(CC(C)(C)CC3=O)N2)cc1` (configuration not stated), the “activity change, negative = inhibition” value was inactive: 2.89%.
In the case of `CCOc1ccc(OCCn2c(=S)[nH]c3ccccc32)cc1`, the Potency is reported as inconclusive: 28.2 µM [inhibitor, single point].
In the case of `O=C(Nc1cccc(-n2cccn2)c1)C1CCCN(Cc2cccc(F)c2F)C1` (configuration not stated), the Potency is reported as inconclusive: 11.2 µM [inhibitor, single point].
With `Cc1noc2ncnc(Sc3ccccc3Cl)c12` the Potency was inconclusive: 22.4 µM [inhibitor, single point].
With `Cc1ccc(C2CCN(C(=S)NC3CCCCC3)C2)cc1` (configuration not stated) the Potency was inconclusive: 14.1 µM [inhibitor, single point].
With `CC(O)[C@H]1CNC(=O)C(=O)N1CCc1cccc(F)c1` (some centres not stated) the Potency was inconclusive: 25.1 µM [inhibitor, single point].
In the case of `Cc1cc(C)n(-c2nc(SCCN(C)C)c3c4c(sc3n2)COC(C)(C)C4)n1`, the Potency is reported as inconclusive: 15.8 µM [inhibitor, single point].
With `c1ccc(-c2c(-c3ccccc3)n(Cc3ccco3)c3ncnc(NCCCn4ccnc4)c23)cc1` the Potency was inconclusive: 22.4 µM [inhibitor, single point].
In the case of `CCC(=O)N1c2ccccc2C(N(C(C)=O)c2ccccc2)CC1C` (configuration not stated), the Potency is reported as inconclusive: 28.2 µM [inhibitor, single point].
For `CC(=O)C(=Cc1ccc(-c2ccccc2)cc1)C(=O)c1ccccc1`, the Potency was inconclusive: 20 µM [inhibitor, single point].
In the case of `C[C@@H]1CN([C@@H](C)CO)C(=O)c2cc(NC(=O)C3CCCCC3)ccc2O[C@@H](C)CCCCO[C@@H]1CN(C)Cc1ccncc1`, the “activity change, negative = inhibition” value is reported as inactive: -11.6%.
In the case of `CCOC(=O)c1[nH]c(C)c(C(=O)c2ccc(C)cc2)c1C`, the Potency is reported as inconclusive: 1.78 µM [inhibitor, full curve, poor fit].
For `Cc1ccccc1C(=O)N1N=C(c2ccc(NS(C)(=O)=O)cc2)CC1c1cccs1` (configuration not stated), the “activity change, negative = inhibition” value was inactive: -4.76%.
With `COc1cccc(NC(=O)c2ccc3nsnc3c2)c1` the Potency was inconclusive: 7.08 µM [inhibitor, partial curve, poor fit].
With `Cc1ccc(C)c(NS(=O)(=O)c2ccc3c(c2)Cc2cc(S(=O)(=O)Nc4cc(C)ccc4C)ccc2-3)c1` the Potency was inconclusive: 28.2 µM [inhibitor, single point].
With `CC(=O)Nc1ccccc1-c1nnc(SCc2ccccc2Cl)[nH]c1=O` the “activity change, negative = inhibition” value was inactive: -1.76%.
For `Cc1ccc(Cn2c(=O)c3c(nc4n3CCN4c3cc(C)cc(C)c3)n(C)c2=O)cc1`, the “activity change, negative = inhibition” value was inactive: 0.424%.
With `Cc1ccc2nc(SCC(=O)Nc3cc(C(F)(F)F)ccc3N3CCOCC3)[nH]c2c1` the Potency was inconclusive: 0.891 µM [inhibitor, full curve, poor fit].
With `CCN(CC)CCn1c(=N)n(CC(O)COc2ccccc2C)c2ccccc21` (configuration not stated) the Potency was inconclusive: 10 µM [inhibitor, partial curve].
In the case of `C=C1CC(COc2cc(=O)oc3ccccc23)(c2ccccc2)OC1=O` (configuration not stated), the Potency is reported as inconclusive: 8.91 µM [inhibitor, partial curve, poor fit].
For `Cc1ccc(C(C)C)c(OCCCN(C)Cc2ccccc2)c1`, the Potency was inconclusive: 28.2 µM [inhibitor, single point].
With `Cc1ccc(S(=O)(=O)N2C[C@H]3N(C(=O)OC(C)C)N(C(=O)OC(C)C)C[C@H](OC(=O)NCC4CCCCC4)[C@@]3(O)C2)cc1` the Potency was inconclusive: 10 µM [inhibitor, single point].
With `Cc1ccc(S(=O)(=O)NCCC(=O)NC2CC2)cc1` the “activity change, negative = inhibition” value was inactive: -2.21%.
In the case of `Nc1c(-c2ccc(Cl)cc2)nnn1-c1ccccc1`, the “activity change, negative = inhibition” value is reported as inactive: 0.853%.
For `Cc1occc1C(=O)O/N=C(\N)c1ccc(Cl)cc1`, the Potency was inconclusive: 12.6 µM [inhibitor, single point].
In the case of `CCC1=NN2C(=N)/C(=C\c3cccn3-c3ccc(C)c(C)c3)C(=O)N=C2S1`, the Potency is reported as inconclusive: 10 µM [inhibitor, partial curve, poor fit].
With `Cc1ccc(CNC(=O)c2c(-c3ccccc3F)noc2C)o1` the “activity change, negative = inhibition” value was inactive: -5.04%.
For `CCc1nnc(N2C(=N)SCC2=O)s1`, the Potency was inconclusive: 10 µM [inhibitor, partial curve, poor fit].
With `O=C(NCCc1ccccc1)c1cccc(NC(=O)C2CC2)c1` the “activity change, negative = inhibition” value was inactive: 13.5%.
In the case of `COc1ccc(C(C(=O)NC2CCCC2)N(C(=O)c2ccoc2C)c2cc(C)cc(C)c2)cc1` (configuration not stated), the “activity change, negative = inhibition” value is reported as inactive: -21.2%.
In the case of `O=C(CCl)N=c1sccn1Cc1ccc(Cl)cc1Cl`, the Potency is reported as inconclusive: 10 µM [inhibitor, single point].
With `O=C(c1ccc(C(F)(F)F)cc1)N1CCN(S(=O)(=O)c2ccc3c(c2)OCCCO3)CC1` the “activity change, negative = inhibition” value was inactive: -0.482%.
For `CCOc1cc(/C=N/Nc2ncnc(Cl)c2N)ccc1O`, the “activity change, negative = inhibition” value was inactive: -8.84%.
With `N#Cc1ccc2c(=O)n(-c3ccccc3)sc2c1` the “activity change, negative = inhibition” value was inactive: -13.3%.
With `CCc1nc(SCC(=O)N2CCc3cc(OC)c(OC)cc3C2)c(C#N)cc1C` the “activity change, negative = inhibition” value was inactive: -6.23%.
With `O=C(Nc1nnc(C2=COCCO2)o1)c1ccc(F)cc1` the Potency was inconclusive: 14.1 µM [inhibitor, single point].
With `CCCCCCOC(=O)C(C#N)c1nc2ccccc2nc1N1CCCCC1` (configuration not stated) the “activity change, negative = inhibition” value was inactive: 48.8%.
For `O=C(CNc1cccc2ccccc12)N/N=C/c1ccc([N+](=O)[O-])o1`, the Potency was inconclusive: 10 µM [inhibitor, partial curve].
With `Cn1c(Cc2ccccc2)[n+](C)c2ccccc21` the Potency was inconclusive: 20 µM [inhibitor, single point].
With `COc1cccc(/C=N/NC(=O)COc2cccc3cccnc23)c1O` the “activity change, negative = inhibition” value was inactive: -5.6%.
With `COc1ccccc1/C=C/CN1CCC(Oc2ccc(C(=O)N3CCCC3)cc2)CC1` the Potency was inconclusive: 11.2 µM [inhibitor, partial curve, poor fit].
With `CCOc1ccc(NC(=O)CC2CC(C)(C)OC2=O)cc1` (configuration not stated) the “activity change, negative = inhibition” value was inactive: -9.44%.
With `CC1Cc2nc(SCC(=O)NC3CCCCC3)n(C)c(=O)c2S1` (configuration not stated) the Potency was inconclusive: 28.2 µM [inhibitor, single point].
In the case of `C=CCC1NS(=O)(=O)OC(CCc2ccccc2)C1O` (configuration not stated), the Potency is reported as inconclusive: 0.794 µM [inhibitor, full curve, poor fit].
For `C=C(C)CCC1(C)NC(=O)N(c2ccccc2)N1` (configuration not stated), the Potency was inconclusive: 28.2 µM [inhibitor, single point].
For `Cc1ccnc(NC(=O)c2cccc(S(=O)(=O)NCc3ccccc3)c2)c1`, the Potency was inconclusive: 28.2 µM [inhibitor, single point].
In the case of `CNC(=S)N/N=C/c1cc(C)ccc1C`, the Potency is reported as inconclusive: 7.08 µM [inhibitor, partial curve, poor fit].
With `O=C1CC(c2ccccc2)CC(O)=C1C=NC1CCCCCC1` (configuration not stated) the Potency was inconclusive: 11.2 µM [inhibitor, single point].
With `Cc1c(C(=O)N/N=C/C(C)C)[nH]c2c([N+](=O)[O-])cccc12` the Potency was inconclusive: 8.91 µM [inhibitor, partial curve, poor fit].
In the case of `O=C(N/N=C/c1ccc(Cl)cc1Cl)c1cccc(F)c1`, the Potency is reported as inconclusive: 11.2 µM [inhibitor, single point].
In the case of `Cc1ccccc1NC(=O)c1ccccc1N(C)S(=O)(=O)c1ccccc1`, the Potency is reported as inconclusive: 5.62 µM [inhibitor, full curve, poor fit].
For `N#C/C(=N/Nc1ccccc1[N+](=O)[O-])C(N)=S`, the Potency was inconclusive: 11.2 µM [inhibitor, partial curve].
In the case of `Cc1ccc2c(c1)c1c(n2CC(O)CNC2CCCCC2)CCCC1` (configuration not stated), the Potency is reported as inconclusive: 22.4 µM [inhibitor, single point].
For `COc1ccc(CCNC(=S)NCCc2ccc(OC)c(OC)c2)cc1OC`, the Potency was inconclusive: 3.98 µM [inhibitor, full curve, poor fit].
For `COc1cc2c(cc1NC(=O)CN1C(=O)NC3(CCc4ccccc43)C1=O)oc1ccccc12` (configuration not stated), the Potency was inconclusive: 31.6 µM [inhibitor, single point].
For `COc1cccc(C2=NN(S(C)(=O)=O)C(c3cn(-c4ccccc4)nc3-c3cccs3)C2)c1` (configuration not stated), the “activity change, negative = inhibition” value was inactive: -6.87%.
With `COc1ccc(OC)c(C2C=C(C34CC5CC(CC(C5)C3)C4)NC(=S)N2)c1` (configuration not stated) the Potency was inconclusive: 2.24 µM [inhibitor, full curve, poor fit].
For `COc1ccc(/C=C/c2nc3ccccc3n2Cc2ccccc2OC)cc1`, the Potency was inconclusive: 2.82 µM [inhibitor, partial curve, poor fit].

From PubChem BioAssay AID624418 (National Center for Advancing Translational Sciences (NCATS), 2012)
% is set by controls: 0 for no effect and ±100 for the full control effect; potency is the fitted concentration of half-maximal effect.
